Measured values reported in PubChem BioAssay AID1240 (Sanford-Burnham Center for Chemical Genomics, 2008).
The campaign covered roughly 50,000 compounds. About 800 (1.6%) showed an effect of 50% or more. The list shows a part of the results.

target: Bcl-2-like protein 10 (Homo sapiens) (UniProt Q9HD36); test: Phenotype converters, Bcl-B/TR3 peptide binding displacement, primary biochemical FP (AID 1240); details: GST-Bcl-B / FITC-TR3 peptide fluorescence polarization; stronger effect = higher value; compound at 3.75 mg/L;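 note: 0% = Bcl-B with tracer peptide and DMSO and 100% = tracer peptide lacking Bcl-B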
Sequence of UniProt Q9HD36 (Q9HD36 whole entry, looked up): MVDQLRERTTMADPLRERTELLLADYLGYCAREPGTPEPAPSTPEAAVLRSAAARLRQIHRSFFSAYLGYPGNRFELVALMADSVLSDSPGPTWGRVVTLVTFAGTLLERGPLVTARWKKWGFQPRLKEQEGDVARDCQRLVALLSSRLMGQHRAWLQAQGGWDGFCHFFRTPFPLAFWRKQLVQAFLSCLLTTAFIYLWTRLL

Compound | displacement
O=C(CSc1nc2ccccc2o1)c1cccc([N+](=O)[O-])c1 | 15.4%
COc1ccc(C2CC(=O)C3=C(C2)Nc2ccccc2NC3c2cccc(OC)c2OC)cc1OC (stereo not given) | -3.7%
O=C(O)CC1S/C(=N/N=C2/C(=O)Nc3ccccc32)N(c2ccc(O)cc2)C1=O (stereo not given) | 13.7%
CCCCOC(=O)c1cccc(NC(=O)c2cncc(Br)c2)c1 | 11.3%
O=C(COc1ccccc1)Nc1ccc(-c2nc3cc(Cl)ccc3o2)cc1 | 16.2%
CN(C)CCNC(=O)c1cc(Cl)ccc1Cl | -10.4%
Cc1cc(OCc2ccc([N+](=O)[O-])cc2)c2c(-c3ccccc3)cc(=O)oc2c1 | -4.9%
CCOC(=O)C(CC)Oc1ccc2c(C(F)(F)F)cc(=O)oc2c1 (stereo not given) | -2%
COC(=O)c1ccc(C(=O)OC)c(NC(=O)/C=C/c2ccco2)c1 | 63.5%
O=C1CSC(=S)N1N1C(=O)C2C3C=CC(C3)C2C1=O (stereo not given) | -0.8%
O=C1C2=C(Nc3ccccc3SC2c2ccco2)c2ccccc21 (stereo not given) | 1.3%
CN1CCc2c(sc(N)c2C(=O)OC(C)(C)C)C1 | 0.1%
O=C(Nc1ccc(S(=O)(=O)Nc2ncccn2)cc1)c1cc([N+](=O)[O-])ccc1Cl | -0.7%
CCOC(=O)c1ccc(NC(=O)c2ccc(OCC)c(Cl)c2)cc1 | -7.9%
CCOC(=O)c1c(-c2ccc(C)cc2)csc1NC(=S)NC(C)=O | 1.4%
O=C(O)C1NCCc2ccccc21 (stereo not given) | -14.6%
CC(C)OC(=O)c1c(-c2ccc(Cl)cc2Cl)csc1NC(=O)C1C2CCC(C2)C1C(=O)O (stereo not given) | -0.4%
Cc1cc(F)c(F)cc1C(=O)N1CCCC1 | 0%
Oc1ccc(/C=N/Nc2nc(N3CCCC3)nc(N3CCCC3)n2)cc1O | 3.8%
C=CCN1C(=O)/C(=C\c2cc(Cl)cc(Br)c2O)SC1=S | 13.1%
CC(=O)Nc1ccc(Nc2c([N+](=O)[O-])c(=O)n(C)c3ccccc23)cc1 | -0.8%
CCCCNCCCCCOc1cccc(C)c1C | 7.1%
CC1=C(C(=O)Nc2ccccc2)C(c2cccs2)C(C#N)=C(SCC(=O)c2ccccc2)N1 (stereo not given) | 4.2%
N/C(=N\OC(=O)c1ccccc1I)c1ccc(Cl)cc1 | 2.2%
C=CCN(c1ccc(C(=O)O)cc1)S(=O)(=O)/C=C/c1ccccc1 | -15%
O=C(O)/C=C/C(=O)Nc1ccccc1-c1ccccc1 | -5.3%
CCOC(=O)c1ccc(N=Cc2c(O)n(C)c(=O)[nH]c2=O)cc1 | 16.2%
CC(=O)Nc1ccc(S(=O)(=O)Nc2ccc(N(C)C(C)=O)cc2)cc1 | -10.1%

Compound | displacement
Cc1nc2ccccc2c(=O)n1/N=C/c1c(O)ccc2ccccc12 | 9%
CC(NC=O)c1ccc(Br)cc1 (stereo not given) | 5.3%
COc1ccc(Br)cc1CN1CCN(C2CCCC2)CC1 | 4.3%
COc1cccc2c1CC/C(=C\c1cccc(I)c1)C2=O | 13.7%
O=C(NC(NC(=S)Nc1ccc(F)cc1)C(Cl)(Cl)Cl)c1ccc(F)cc1 (stereo not given) | 10.3%
Cc1cc(C)c2nc3s/c(=C\c4cccc(Br)c4)c(=O)n3c2c1 | 3%
O=Cc1ccc(-c2ccc(F)cc2F)o1 | -1.5%
O=C(NN=C(/C=C/c1ccccc1)/C=C/c1ccccc1)c1cccnc1 | -5.3%
Cc1onc(-c2ccccc2)c1C(=O)N1CCc2ccccc21 | -5.4%
CCCC(=O)Nc1ccc(NC(=O)c2cc(Br)ccc2I)cc1 | 0.9%
COc1cc(NC(=O)c2c(-c3ccccc3Cl)noc2C)c(OC)cc1Cl | 6.9%
Nn1c(-c2ccco2)nc2ccccc2c1=O | 2.4%
COc1ccc(N(CC(=O)Nc2ccccc2F)S(=O)(=O)c2ccccc2[N+](=O)[O-])c(OC)c1 | -17.5%
O=C(c1cnn2c(C(F)(F)F)cc(-c3cccs3)nc12)N1CCOCC1 | -1%
O=C1CCC(=O)N1c1cccc2c(N3C(=O)CCC3=O)cccc12 | -0.3%
Cc1c(NC(=O)CCN2C(=O)S/C(=C\c3ccccc3)C2=O)c(=O)n(-c2ccccc2)n1C | 1.1%
COc1cc(C=Nc2ccc(Cl)c([N+](=O)[O-])c2)ccc1OC(C)=O | 4.8%
Cc1ccc(N2C(=O)NC(=O)/C(=C\c3ccc(N4CCCCC4)o3)C2=O)cc1 | -139%
COc1ccccc1C1CN(c2ccccc2)N=C1c1cccs1 (stereo not given) | -5.4%
O=C(CSc1ncn[nH]1)Nc1ccc(F)cc1 | -7%
CCOC(=O)C1(C)C=C(Nc2cccc([N+](=O)[O-])c2)C(=O)N1c1ccccc1 (stereo not given) | 3.6%
COc1cc(NC(=O)c2cccc(C)c2)c(C(=O)O)cc1OC | -2.1%
O=C1c2ccccc2NC(c2ccc(O)cc2)N1c1ccc(Cl)cc1 (stereo not given) | 17.4%
O=[N+]([O-])c1cccc(N/C(=N/S(=O)(=O)c2ccc(Cl)cc2)c2ccccc2)c1 | 13.2%
Cc1c(OCC(=O)c2ccc(Cl)cc2)ccc2c3c(c(=O)oc12)CCC3 | 10.5%
CCOC(=O)Cc1nnc(Nc2cccc(C)c2)c2ccccc12 | 24.4%
O=[N+]([O-])c1ccc(F)c(NS(=O)(=O)c2ccccc2)c1 | 7.5%
